Laboratory results taken from ChEMBL document CHEMBL5247621, “From dopamine 4 to sigma 1: Synthesis, SAR and biological characterization of a piperidine scaffold of σ1 modulators” (Eur J Med Chem, 2022).

Experiments:
[1] = target: T1, D(4) dopamine receptor (Homo sapiens) (UniProt P21917); assay: Displacement of [3H]N-methylspiperone from D4 receptor in HEK293 cell membrane assessed as inhibition constant at 10 uM relative to control; format: cell membranes; design: scale not given: the % may be the effect or the level left
T1 sequence (whole entry): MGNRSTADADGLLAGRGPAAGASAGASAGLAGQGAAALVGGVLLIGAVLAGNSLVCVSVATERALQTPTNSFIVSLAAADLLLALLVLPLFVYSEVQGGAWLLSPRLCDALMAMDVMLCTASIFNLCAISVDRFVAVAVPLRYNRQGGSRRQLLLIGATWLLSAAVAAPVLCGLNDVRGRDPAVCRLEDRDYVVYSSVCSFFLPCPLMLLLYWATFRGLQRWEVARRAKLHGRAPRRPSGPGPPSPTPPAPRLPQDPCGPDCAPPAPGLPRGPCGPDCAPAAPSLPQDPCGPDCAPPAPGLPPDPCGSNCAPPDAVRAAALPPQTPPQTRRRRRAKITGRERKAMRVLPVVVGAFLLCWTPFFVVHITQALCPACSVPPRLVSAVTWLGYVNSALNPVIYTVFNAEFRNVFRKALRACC

[2] = target: T2, Sigma non-opioid intracellular receptor 1 (Homo sapiens, UniProt Q99720); assay: Displacement of [3H] Pentazocine from sigma 1 receptor in HEK293 cell membrane; format: cell membranes
T2 sequence (Q99720 whole entry): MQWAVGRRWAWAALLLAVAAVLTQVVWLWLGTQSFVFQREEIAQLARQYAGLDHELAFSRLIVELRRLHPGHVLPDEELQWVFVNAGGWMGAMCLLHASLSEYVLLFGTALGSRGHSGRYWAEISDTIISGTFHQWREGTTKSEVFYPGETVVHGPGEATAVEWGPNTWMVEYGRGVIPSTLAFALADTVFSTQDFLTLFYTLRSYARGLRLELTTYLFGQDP

D(1A) dopamine receptor = D(1A) dopamine receptor (Homo sapiens, UniProt P21728); assay: Displacement of [3H]SCH23390 from D1 receptor in HEK293 cell membrane assessed as inhibition constant; format: cell membranes
UniProt P21728, sequence (P21728 whole entry): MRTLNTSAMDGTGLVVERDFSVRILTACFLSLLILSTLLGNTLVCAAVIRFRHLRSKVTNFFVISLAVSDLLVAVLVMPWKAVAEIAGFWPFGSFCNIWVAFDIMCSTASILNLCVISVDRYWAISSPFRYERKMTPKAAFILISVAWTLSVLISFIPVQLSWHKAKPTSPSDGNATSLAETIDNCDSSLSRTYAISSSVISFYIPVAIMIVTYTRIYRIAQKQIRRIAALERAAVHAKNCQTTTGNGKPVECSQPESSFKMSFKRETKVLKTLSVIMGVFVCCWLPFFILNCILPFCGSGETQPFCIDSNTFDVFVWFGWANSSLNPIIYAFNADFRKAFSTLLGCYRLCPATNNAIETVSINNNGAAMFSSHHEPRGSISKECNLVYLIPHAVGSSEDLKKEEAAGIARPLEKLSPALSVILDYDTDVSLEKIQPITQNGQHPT
Outline: (§1)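 Competitive radioligand binding in membranes harvested from HEK293 cells, with one radioligand per target: [3H]N-methylspiperone for D2, D3 and D4; [3H]SCH23390 for D1 and D5; [3H]pentazocine for σ1; [3H]DTG for σ2. Ki derived from inhibition of binding, each run in triplicate.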

[3] = target: Sigma intracellular receptor 2 (Homo sapiens, UniProt Q5BJF2); assay: Displacement of [3H]DTG from sigma-2 receptor in HEK293 cell membrane assessed as inhibition constant; format: cell membranes; outline: as §1
UniProt Q5BJF2, sequence (Q5BJF2 whole entry): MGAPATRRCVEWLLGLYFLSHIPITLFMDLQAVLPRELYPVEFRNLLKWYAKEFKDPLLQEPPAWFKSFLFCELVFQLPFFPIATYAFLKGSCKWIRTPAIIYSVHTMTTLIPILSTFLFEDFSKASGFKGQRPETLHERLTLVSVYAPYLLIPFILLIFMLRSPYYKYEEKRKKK

D(4) dopamine receptor = target: T3, D(4) dopamine receptor (Homo sapiens, UniProt P21917); assay: Displacement of [3H]N-methylspiperone from D4 receptor in HEK293 cell membrane; format: cell membranes
T3 sequence (P21917 whole entry): T1 sequence (whole entry)

[4] = Plasma protein binding in mouse assessed as unbound fraction; format: ADME
Outline: (§2)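 Plasma protein binding by equilibrium dialysis in human or mouse plasma, reported as fraction unbound (fu).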

[5] = Plasma protein binding in human assessed as unbound fraction; format: ADME, cell-free; outline: as §2
D(3) dopamine receptor = D(3) dopamine receptor (Homo sapiens, UniProt P35462); assay: Displacement of [3H]N-methylspiperone from D3 receptor in HEK293 cell membrane assessed as inhibition constant; format: cell membranes; outline: as §1
UniProt P35462, sequence (P35462 whole entry): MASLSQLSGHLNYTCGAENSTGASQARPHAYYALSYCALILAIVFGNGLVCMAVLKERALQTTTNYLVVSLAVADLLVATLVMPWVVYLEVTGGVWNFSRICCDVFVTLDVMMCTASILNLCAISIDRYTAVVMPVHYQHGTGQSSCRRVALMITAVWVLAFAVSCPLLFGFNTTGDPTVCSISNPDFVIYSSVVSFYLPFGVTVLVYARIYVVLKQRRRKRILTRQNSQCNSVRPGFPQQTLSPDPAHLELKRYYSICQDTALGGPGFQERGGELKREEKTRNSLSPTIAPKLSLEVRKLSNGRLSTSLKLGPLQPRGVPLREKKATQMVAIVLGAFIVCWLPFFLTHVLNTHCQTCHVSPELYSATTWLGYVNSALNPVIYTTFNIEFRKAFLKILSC

D(1B) dopamine receptor = D(1B) dopamine receptor (Homo sapiens, UniProt P21918); assay: Displacement of [3H]SCH23390 from D5 receptor in HEK293 cell membrane assessed as inhibition constant; format: cell membranes; outline: as §1
UniProt P21918, sequence (P21918 whole entry): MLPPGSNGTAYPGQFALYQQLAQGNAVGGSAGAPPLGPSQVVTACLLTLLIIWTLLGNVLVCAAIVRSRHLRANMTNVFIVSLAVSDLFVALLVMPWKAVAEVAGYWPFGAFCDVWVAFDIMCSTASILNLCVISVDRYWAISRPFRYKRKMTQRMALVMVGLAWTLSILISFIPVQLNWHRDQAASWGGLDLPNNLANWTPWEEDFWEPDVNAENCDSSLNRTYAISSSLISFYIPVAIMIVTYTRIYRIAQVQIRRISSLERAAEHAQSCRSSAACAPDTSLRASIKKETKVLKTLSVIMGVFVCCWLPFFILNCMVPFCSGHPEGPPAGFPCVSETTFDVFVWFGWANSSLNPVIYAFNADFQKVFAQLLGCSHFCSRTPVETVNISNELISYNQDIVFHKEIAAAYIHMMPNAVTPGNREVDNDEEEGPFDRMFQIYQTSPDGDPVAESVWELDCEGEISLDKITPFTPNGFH

[6] = target: T2, Sigma non-opioid intracellular receptor 1; assay: Displacement of [3H] Pentazocine from sigma 1 receptor in HEK293 cell membrane assessed as inhibition constant relative to control; format: cell membranes; design: scale not given: the % may be the effect or the level left; outline: as §1

Cc1ccccc1CN1CCC[C@H](OCc2cccc(F)c2)C1
Activity [1]: 29%
Ki [2]: 45 nM

Cc1c(Cl)cccc1NC(=O)CN1CCC2(CCCN2Cc2ccc(F)c(F)c2)CC1
Activity [1]: 4%
Ki (D(1A) dopamine receptor): > 10000 nM
Ki [3]: 121 nM
Ki [2]: 83 nM

Cc1nc(CN2CCC(OCc3cccc(C(F)(F)F)c3)CC2)c2ccccn12
Ki (D(4) dopamine receptor; read-out: pKi (converted)): 302 nM
Ki [2]: 35 nM

Fc1ccc(OC[C@@H]2CN(Cc3ccc4[nH]cnc4c3)CCO2)cc1F
Ki [2]: 18 nM

Cn1ncc2cc(CN3CCC(OCc4ccc(F)c(F)c4)CC3)ccc21
Ki (D(1A) dopamine receptor): > 10000 nM
Ki [3]: 10 nM
Ki [2]: 1.8 nM

Cc1nc(CN2CCC(OCc3ccc(Cl)c(F)c3)CC2)c2ccccn12
Fu [4]: 9%
Fu [5]: 8.3%
Ki [2]: 12 nM

Fc1cc(COC2CCN(Cc3cc4ccc(Cl)cc4[nH]3)CC2)ccc1Cl
Ki [2]: 29 nM

Cc1cc(NC(=O)CN2CCC3(CCCN(Cc4ccc(F)c(F)c4)C3)C2)ccc1F (stereo not drawn)
Fu [4]: Not Determined(Unstable)
Activity [1]: 11%
Ki (D(3) dopamine receptor): 376 nM
Ki (D(1A) dopamine receptor): > 10000 nM
Ki [3]: 45 nM
Fu [5]: 0.02%
Ki [2]: 11 nM
Ki (D(1B) dopamine receptor): > 10000 nM

Cc1ccc(CO[C@H]2CCCN(Cc3ccc(C#N)cc3)C2)cc1
Fu [4]: 2.4%
Ki (D(1A) dopamine receptor): > 10000 nM
Ki [3]: 248 nM
Fu [5]: 1.2%
Ki [2]: 14 nM

Cc1ccc(CN2CCC[C@H](OCc3ccc(F)c(C)c3)C2)cc1
Ki (D(1A) dopamine receptor): > 10000 nM
Ki [3]: 76 nM
Ki [2]: 6.5 nM

Cc1c(Cl)cccc1NC(=O)CN1CCC(OCc2cccc(C(F)(F)F)c2)CC1
Ki [2]: 358 nM

Cc1cc(NC(=O)CN2CCC(OCc3ccc(F)c(F)c3)CC2)ccc1F
Fu [4]: Not Determined(Unstable)
Ki (D(1A) dopamine receptor): > 10000 nM
Ki [3]: 123 nM
Ki [2]: 81 nM

Cn1ncc2cc(CN3CCC(OCc4ccc(Cl)c(F)c4)CC3)ccc21
Ki [2]: 1.3 nM

COc1ccc(CN2CCC[C@H](OCc3ccccc3C)C2)cc1F
Ki [2]: 8.7 nM

Cc1nc(CN2CCC(OCc3ccc(F)c(F)c3)CC2)c2ccccn12
Ki [2]: 40 nM

FC(F)(F)Oc1cccc(CO[C@H]2CCCN(Cc3ncc4ccccn34)C2)c1
Activity [1]: 40%
Ki [2]: 55 nM

Cn1ncc2cc(CN3CCC(OCc4cccc(C(F)(F)F)c4)CC3)ccc21
Ki [2]: 1.7 nM

Cc1ccc(CO[C@H]2CCCN(Cc3cccc(F)c3)C2)cc1
Fu [4]: 1.4%
Activity [1]: 33%
Ki (D(1A) dopamine receptor): > 10000 nM
Ki [3]: 574 nM
Fu [5]: 0.3%
Ki [2]: 19 nM

Fc1cc(COC2CCN(Cc3ncc4ccccn34)CC2)ccc1Cl
Ki [2]: 31 nM

COc1ccc(CN2CCC[C@@H](OCc3ccc(F)c(C)c3)C2)cc1F
Fu [4]: 1%
Ki (D(1A) dopamine receptor): > 10000 nM
Ki [3]: 206 nM
Fu [5]: Not Determined(Unstable)
Ki (D(4) dopamine receptor; read-out: Ki): 1050 nM
Ki [2]: 8.8 nM

Cc1cc(NC(=O)CN2CCC3(CCCN3Cc3ccc(F)c(F)c3)CC2)ccc1F
Activity [1]: 25%
Ki [2]: 27 nM

Fc1ccc(COC2CCN(Cc3cn4ccccc4n3)CC2)cc1F
Ki [2]: 5.2 nM

FC(F)(F)c1cccc(COC2CCN(Cc3ncc4ccccn34)CC2)c1
Ki [2]: 175 nM

Cc1cccc(COC2CCN(Cc3cn4ccccc4n3)CC2)n1
Ki (D(4) dopamine receptor; read-out: Ki): 320 nM
Ki [2]: 180 nM

Cc1csc(OC[C@@H]2CN(Cc3ccc4c(cnn4C)c3)CCO2)n1
Ki (D(4) dopamine receptor; read-out: Ki): 557 nM
Ki [2]: 1330 nM

COc1ccc(CN2CCC[C@H](OCc3ccc(F)c(C)c3)C2)cc1F
Fu [4]: 1.2%
Ki (D(1A) dopamine receptor): > 10000 nM
Ki [3]: 123 nM
Fu [5]: 0.6%
Ki [2]: 2.4 nM

Fc1ccc(OC[C@@H]2CN(Cc3cn4ccccc4n3)CCO2)cc1F
Fu [4]: 14.3%
Fu [5]: 2.4%
Ki (D(4) dopamine receptor; read-out: Ki): 91 nM
Ki [2]: 1090 nM

Cc1c(Cl)cccc1NC(=O)CN1CCC(OCc2ccc(F)c(F)c2)CC1
Ki (D(1A) dopamine receptor): > 10000 nM
Ki [2]: 131 nM
Ki (D(1B) dopamine receptor): > 10000 nM

Cc1cccc(CO[C@H]2CCCN(Cc3ncc4ccccn34)C2)n1
Activity [1]: 19%
Activity [6]: 15%
